“And” between values parts separate entries of the source, which are not always exact repeats. Equal entries are not always repeated. Structures can show the parent of a compound that is named as a salt. The full ranking holds about 2,600 compounds; the median of “MBP+ mature oligodendrocyte number relative to DMSO vehicle control” is about -0.34, and the highest 2% start at about 13. This is one part of the list.
Each compound was assayed on jimpy (Plp1 jimpy) mouse iPSC-derived oligodendrocyte progenitor cells (assay: MBP+ mature oligodendrocyte number relative to DMSO vehicle control (SDs above negative control mean); higher = more surviving jimpy oligodendrocytes (rescue)). Conditions: 10 µM; 3 days.
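Note: 10 µM single dose with 3-day oligodendrocyte differentiation.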

Compound | MBP+ mature oligodendrocyte number
c1ccc2c(CCNc3ccc(Nc4ccncc4)cc3)c[nH]c2c1 | < -6.7
COc1ccc2c(Oc3ccc(NC(=O)c4c(C)n(CC(C)(C)O)n(-c5ccccc5)c4=O)nc3)ccnc2c1 | -1.01
COc1c(C)cnc(Cn2cnc3c(Cl)nc(N)nc32)c1C | < -6.7
Cc1nc2c([nH]1)-c1ccccc1N(C(=O)c1ccc(NC(=O)c3ccccc3-c3ccccc3)cc1)CC2 [Conivaptan HCl] | 1.07
CNCCc1ccccn1 [Betahistine 2HCl] | 1.93
CNCc1ccc(C)c(NC(=O)c2ccc(Nc3nc(-c4ccccc4)c4ccccc4n3)cc2)c1 | < -6.35
O=C1Nc2ccc(Cl)cc2[C@@](C#CC2CC2)(C(F)(F)F)O1 [Efavirenz] | 2
Nc1ccc(C(=O)O)c(O)c1 [Sodium 4-Aminosalicylate] | -0.861
COc1cc(CCc2cc(NC(=O)c3ccc(N4CC(C)NC(C)C4)cc3)n[nH]2)cc(OC)c1 (stereo not drawn) | < -6.01
O=C(O)c1ccccc1Nc1cccc(C(F)(F)F)c1 [Flufenamic acid] | 1.25
O=C(O)Cn1nnc(-c2cc(N3CCC(Oc4cc(F)ccc4Br)CC3)no2)n1 | 4.3
c1ccc(-c2nn3c(c2-c2ccnc4cc(OCCN5CCOCC5)ccc24)CCC3)nc1 | -2.59
O=C1O[C@H]([C@@H](O)CO)C(O)=C1O [Vitamin C] | 0.66
Clc1ccc(C(c2ccccc2Cl)C(Cl)Cl)cc1 (stereo not drawn) [Mitotane] | -0.287
Cc1cccc(C)c1OCC(=O)N[C@@H](Cc1ccccc1)[C@@H](O)C[C@H](Cc1ccccc1)NC(=O)[C@H](C(C)C)N1CCCNC1=O [Lopinavir] | -1.99
NS(=O)(=O)c1nn2cc(-c3ccccc3)nc2s1 | -3.3
Nc1ccc(/N=N/c2ccccc2)c(N)n1 [Phenazopyridine HCl] | -2.55
CCC(=O)O[C@]1(C(=O)SCF)[C@H](C)C[C@H]2[C@@H]3C[C@H](F)C4=CC(=O)C=C[C@]4(C)[C@@]3(F)[C@@H](O)C[C@@]21C [Fluticasone propionate] | 8.9
Cc1[nH]nc2ccc(-c3cncc(OC[C@@H](N)Cc4ccccc4)c3)cc12 | < -6.01
NCCCS(=O)(=O)O [3-Amino-1-propanesulfonic acid sodium] | -1.14
CC(C)[C@H](O)C(=O)N[C@@H](C)C(=O)N[C@@H]1C(=O)N(C)CCc2ccccc21 | 0.343
CN(C)CCCc1cc(C(=O)Nc2ccc(-c3ccncc3)cc2)ccc1O | -2.53
CC(C)c1cnn2c(NCc3ccccc3)cc(NCCCCCCN)nc12 | < -5.15
NC1CONC1=O (racemic) [DL-Cycloserine] | 0.353
O=S(=O)(c1cccc2cnccc12)N1CCCNCC1 [Fasudil (HA-1077) HCl] | -0.377
COc1cc2nc(N3CCCN(C)CC3)nc(NC3CCN(Cc4ccccc4)CC3)c2cc1OC | < -3.85 and -4.64
Cc1c(C(=O)N2CCOc3ccc(-c4ccc(N)nc4)cc3C2)ccc(S(C)(=O)=O)c1F | -0.945

Compound | MBP+ mature oligodendrocyte number
OC[C@H]1NC[C@@H](O)[C@@H]1O [1,4-Dideoxy-1,4-imino-D-arabinitol] | 1.55
Cc1nc2c([nH]1)c(=O)n(C)c(=O)n2Cc1ccco1 [Furafylline] | 2.07
CC(NCCc1ccc(O)cc1)C(O)c1ccc(O)cc1 (stereo not drawn) [Ritodrine HCl] | -0.164
CC(NCCc1ccc(O)cc1)C(O)c1ccc(O)cc1 (stereo not drawn) [Ritodrine hydrochloride] | 1.15
CCC1(C)CC(=O)NC1=O (stereo not drawn) [Ethosuximide] | 1.6
CC(C)(O)CC(=O)NCCn1ccc2ncnc(Nc3ccc(Oc4cccc(C(F)(F)F)c4)c(Cl)c3)c21 | 5.98
C[C@H](Nc1ncnc2nc[nH]c12)c1cc2cccc(Cl)c2c(=O)n1-c1ccccc1 | -4.92
N#CC[C@H](C1CCCC1)n1cc(-c2ncnc3[nH]ccc23)cn1 | 2.47
COc1cc(CNC(=O)CCCCCCC(C)C)ccc1O [Dihydrocapsaicin] | -2.68
CCCc1nn(C)c2c(=O)[nH]c(-c3cc(S(=O)(=O)N4CCN(C)CC4)ccc3OCC)nc12 [Sildenafil citrate salt] | 0.156
CCCc1nn(C)c2c(=O)[nH]c(-c3cc(S(=O)(=O)N4CCN(C)CC4)ccc3OCC)nc12 [Sildenafil Citrate] | 3.77
CN(C[C@@H]1COCCO1)S(=O)(=O)Nc1ccc2ccc3ncc(-c4cnn(C)c4)cc3c(=O)c2c1 | -5.93
COc1cccc(OC)c1OCCNCC1CSc2ccccc2O1 (stereo not drawn) [Benoxathian hydrochloride] | 2.16
O=C(CSc1nc2c(c(=O)n1-c1ccccc1)SCC2)Nc1ccc(-c2ccccc2)cn1 | 1.84
CCC(C)(C)C(=O)O[C@H]1C[C@@H](C)C=C2C=C[C@H](C)[C@H](CC[C@@H]3C[C@@H](O)CC(=O)O3)[C@H]21 [Simvastatin] | < -5.15
CC(=O)Oc1ccc(C(c2ccc(OC(C)=O)cc2)c2ccccn2)cc1 [Bisacodyl] | 5.31
CCOC(=O)CC(=O)N1CCSC1COc1ccccc1OC (stereo not drawn) [Moguisteine] | 0.342
CCN1CCCC1CNC(=O)c1cc(S(N)(=O)=O)ccc1OC (single isomer, unassigned; (-)) [(-)-Sulpiride] | -0.604
CN1CCN2c3ccccc3Cc3ccccc3C2C1 (stereo not drawn) [Mianserin hydrochloride] | -3.42
CN1CCN2c3ccccc3Cc3ccccc3C2C1 (stereo not drawn) [Mianserin HCl] | -6.09
CCCCCCCCOc1ccccc1C(=O)Nc1ccc(C(=O)OCC[N+](C)(CC)CC)cc1 [Otilonium Bromide] | 3.2
N[C@@H](Cc1ccc(O)c(O)c1)C(=O)O [L-3,4-Dihydroxyphenylalanine] | 0.293
CCCCc1ncc(/C=C(\Cc2cccs2)C(=O)O)n1Cc1ccc(C(=O)O)cc1 [Eprosartan mesylate] | -0.206
CCCCc1ncc(/C=C(\Cc2cccs2)C(=O)O)n1Cc1ccc(C(=O)O)cc1 [Eprosartan Mesylate] | -1.37
CCc1ccc(OCc2ccccc2C(=O)Nc2ccc3nc(C)cc(N)c3c2)cc1 | < -6.01
CN(C)CCc1c[nH]c2ccc(CS(=O)(=O)N3CCCC3)cc12 [Almotriptan Malate] | 1.07

From the supplement of paper PMC6135742
